The values that follow come from the RNAGym collection of RNA variant scans (doi:10.7554/elife.90254).

B1: LINE1-mini (parent)
chain: GGCAGAGCUCAACACAGCGUGGCAAAGUGGCUGUGGCUAGACUGCC

Read counts are not given, so values of variants with three or more changes are uncertain.

In the data set the parent is B1. As to the kind of experiment: self-cleavage, relative activity (ratio to wild type); higher = more cleavage; in vitro, sequencing; the parent is a self-cleaving ribozyme.
Turning to A4C G7U U28C A39G, the self-cleavage was 0.04.

As for A4C C15A A16U C23G C37U U43A, the self-cleavage came out at 0.01.

In the case of A4C A16G G17A G22U, the self-cleavage stood at 0.04.

With A4C C13A A41U, the self-cleavage was 0.04.

Turning to A4C C18U C45G, the self-cleavage amounted to 0.02.

With A4C C23U U28G C45G, the self-cleavage amounted to 0.01.

As to A4C A11G G22A A25C G40C G44A, the self-cleavage amounted to 0.

Take A4C G29A C42A: the self-cleavage stood at 0.23.

For A4C C10A A14G U34C, the self-cleavage came out at 0.

As for A4C G7C U20A G33U G40C, the self-cleavage was 0.04.

Take A4C C10U G22A G36C A39C: the self-cleavage is 0.04.

For A4C A24G C42A, the self-cleavage is 0.28.

For A4C G21U C46U, the self-cleavage is 0.05.

Turning to A4C C10G G40U, the self-cleavage was 0.04.

Take A4C U9G A16C G29U U34G: the self-cleavage worked out at 0.76.

Regarding A4C G5A C13A, the self-cleavage came to 0.08.

On to A4C C10G U28G, for which the self-cleavage turned out to be 0.03.

Regarding A4C G5U U34A, the self-cleavage is 0.06.

With A4C G17U C18U A41U, the self-cleavage worked out at 0.06.

Consider A4C G33U U38A, for which the self-cleavage was 0.06.

Turning to A4C C10G A39C, the self-cleavage is 0.01.

Consider A4C C23U C42A, for which the self-cleavage came to 0.35.

Consider A4C A12U C23U G27C U38C, for which the self-cleavage was determined as 0.01.

Consider A4C G5C G7A G19A G21U A26U C31G, for which the self-cleavage stood at 0.02.

Consider A4C G21U A24C G40U, for which the self-cleavage amounted to 0.03.

On to A4C C8U C42U, for which the self-cleavage stood at 0.06.

Turning to A4C G35A A39U, the self-cleavage was found to be 0.01.

Regarding A4C G21A G44C, the self-cleavage was found to be 0.32.

For the variant A4C G22A G44U, the self-cleavage was 0.03.

With A4C G21U A41U U43A, the self-cleavage was 0.01.

In the case of A4C C15U C23G G36A, the self-cleavage stood at 0.02.

Turning to A4C A14C G17A C18G G40C, the self-cleavage stood at 0.05.

Turning to A4C C8G G22U U38A, the self-cleavage came to 0.

Consider A4C A26C G33A A39G, for which the self-cleavage is 0.35.

As for A4C C13U G17A G19U, the self-cleavage was determined as 0.02.

In the case of A4C G17U G22C, the self-cleavage is 0.05.

Take A4C G5A A25U G36A: the self-cleavage came out at 0.22.

As to A4C G29C C46U, the self-cleavage was 0.12.

As to A4C A11G A24U G33C, the self-cleavage was determined as 0.02.

Consider A4C C13U G40A, for which the self-cleavage is 0.11.

Turning to A4C C8U G19C A39G, the self-cleavage was 0.

Consider A4C C10A C15U A16U G21C U34G, for which the self-cleavage stood at 0.

Consider A4C U9C G30C C37A C45U, for which the self-cleavage stood at 0.84.

In the case of A4C G5C G22A G33A, the self-cleavage is 0.03.

As to A4C A25G C42U G44C, the self-cleavage turned out to be 0.03.

Turning to A4C A39G C42A, the self-cleavage is 0.18.

Turning to A4C G17C C46G, the self-cleavage was 0.02.

On to A4C G5U C10U C13A A26U G35A, for which the self-cleavage is 0.02.

With A4C A25C G27U, the self-cleavage was found to be 0.02.

As for A4C C8U U32C, the self-cleavage was 0.09.

A4C G5C A12U C15A C18A U28C G29C C31G C42U: the self-cleavage turned out to be 0.03.

For the variant A4C G5U U9G A24U A26U C42G, the self-cleavage is 0.03.

Consider A4C C13A U34G, for which the self-cleavage stood at 0.04.

A4C G19A G27C C31U G36C: the self-cleavage is 0.06.

For the variant A4C G30U G36C, the self-cleavage amounted to 0.29.

Regarding A4C G5U A25C C45U, the self-cleavage was 0.06.

With A4C G7C C13A C18A U28C G36C, the self-cleavage turned out to be 0.37.

Consider A4C A12G C13A A24G U43A, for which the self-cleavage amounted to 0.2.

In the case of A4C G17A G27A, the self-cleavage was 0.07.

For the variant A4C G17U G22A C42G, the self-cleavage is 0.02.

As for A4C C8A A14U G30U G44U, the self-cleavage is 0.23.

Consider A4C C8U C23A, for which the self-cleavage was determined as 0.11.

Turning to A4C A12C C23U, the self-cleavage turned out to be 0.

Turning to A4C C18A G21A A39C, the self-cleavage was 0.05.

As to A4C G17C U38C C42G, the self-cleavage stood at 0.02.

Regarding A4C G7A A16C G27U A39U, the self-cleavage was determined as 1.06.

Regarding A4C G7U C18A G22U C23A U28A, the self-cleavage amounted to 0.04.

Turning to A4C C8U C13U G22A, the self-cleavage stood at 0.23.

Regarding A4C C13A A14U A25G, the self-cleavage turned out to be 0.48.

Turning to A4C C8U A12U, the self-cleavage was 0.01.

As for A4C G5A U43A C45U, the self-cleavage is 0.01.

Consider A4C G5U U32A G35U, for which the self-cleavage stood at 0.06.

On to A4C C10A G19A C31G, for which the self-cleavage was 0.03.

As for A4C G35U C37U A41G, the self-cleavage stood at 0.02.

As for A4C G21U A26C G36U C42G, the self-cleavage stood at 0.02.

For A4C G5A C10A A11C A12G G21U A41U, the self-cleavage was 0.02.

For A4C G17U G35A, the self-cleavage was determined as 0.06.

A4C C15A A39G: the self-cleavage stood at 0.15.

Take A4C C15A A39C: the self-cleavage stood at 0.

As to A4C G17C C37A, the self-cleavage amounted to 0.11.

In the case of A4C C13A G29U U32C G33A G35U, the self-cleavage was 0.26.

A4C A16C G19A U20G G27C A41U: the self-cleavage worked out at 0.09.

As for A4C G17U A25C G27C U32A A39G, the self-cleavage stood at 0.02.

For the variant A4C C13A G40A, the self-cleavage turned out to be 0.13.

Consider A4C G17U G27A U28A, for which the self-cleavage is 0.49.

For A4C C23U U34C, the self-cleavage stood at 0.04.

Regarding A4C G22A G30C U34G G36U C42A G44U C46U, the self-cleavage came out at 0.02.

As to A4C G19U G21A G29U C46U, the self-cleavage turned out to be 0.28.

On to A4C G29U G30C C37U G40A, for which the self-cleavage was 0.01.

As to A4C G17C G40C, the self-cleavage was found to be 0.04.

As to A4C C8A C18A, the self-cleavage was determined as 0.14.

Regarding A4C C8A G21A G35C, the self-cleavage came to 0.04.

Regarding A4C G21A C37U C42A G44A, the self-cleavage came to 0.02.

On to A4C G35C C45A, for which the self-cleavage turned out to be 0.05.

For A4C C8U G35C, the self-cleavage was 0.06.

In the case of A4C C18G A26G U34C, the self-cleavage came to 0.04.

Consider A4C G7A A14U A41U, for which the self-cleavage is 0.56.

On to A4C C15A C23A G36A U38C, for which the self-cleavage is 0.61.

As for A4C G21U G33A, the self-cleavage came to 0.02.

Turning to A4C G7A C10A G17C U20A C23U C42A C46G, the self-cleavage came out at 0.01.

With A4C A16C G35U C42G, the self-cleavage stood at 0.04.

With A4C G5C U20G U28A, the self-cleavage is 0.01.

Take A4C C8U U38A: the self-cleavage came to 0.1.

As for A4C U9C G17U C46U, the self-cleavage stood at 0.

Consider A4C U9C A14C G22C C45U, for which the self-cleavage was found to be 0.05.

Take A4C C10U G40A: the self-cleavage was 0.02.

Turning to A4C C13G G17A C42U, the self-cleavage is 0.14.

On to A4C C8U A11U G36C A39U, for which the self-cleavage came out at 0.03.

With A4C C10U C45U, the self-cleavage was determined as 0.1.

As for A4C G5A U43A, the self-cleavage was 0.

On to A4C C8A G21C G27C, for which the self-cleavage worked out at 0.16.

Turning to A4C C8U A26U, the self-cleavage was 0.06.

For A4C A16C G17U G27U G29U, the self-cleavage was 0.27.

In the case of A4C C15A G21U, the self-cleavage worked out at 0.05.

For A4C A11U G19C U20C C31U A41C G44U, the self-cleavage worked out at 0.01.

Regarding A4C C10A G29U, the self-cleavage came out at 0.01.

For A4C A12C G27A C42U G44U, the self-cleavage was 0.01.

For the variant A4C A14U C18U, the self-cleavage was 0.18.

With A4C G22A G40A C46U, the self-cleavage was 0.24.

Consider A4C G7U U9C G35U C45G, for which the self-cleavage turned out to be 0.02.

As for A4C C8U C18G, the self-cleavage was 0.03.

On to A4C G36U C42G, for which the self-cleavage was 0.02.

With A4C G36U U38G, the self-cleavage worked out at 0.01.

As for A4C A16U G21A, the self-cleavage is 0.03.

Turning to A4C C15U U28C U34G, the self-cleavage came out at 0.

On to A4C G5U A6C U34A, for which the self-cleavage was found to be 0.

For A4C A12C C18G G27U, the self-cleavage worked out at 0.02.

On to A4C A16G G17U G21C A41C C46A, for which the self-cleavage stood at 0.06.

Consider A4C C8U A14G A25G G29C, for which the self-cleavage is 0.06.

A4C C13A A25C G33A: the self-cleavage was 0.02.

For A4C A24C G40U, the self-cleavage turned out to be 0.05.

Take A4C A24U G29C C42U: the self-cleavage was 0.04.

As to A4C A12U G17C G22A G44U C45U, the self-cleavage was determined as 0.2.

A4C G19U C37G C46U: the self-cleavage was found to be 0.02.

Consider A4C U9A A26G, for which the self-cleavage turned out to be 0.06.

For the variant A4C C23A G33U A41U, the self-cleavage was 0.07.

For A4C G30A A39G U43A, the self-cleavage was 0.12.

For A4C A14U G19U A24C G27A G29C G40A, the self-cleavage was 0.02.

For A4C C15A G21U U28C C37G, the self-cleavage came to 0.03.

Take A4C G17C G21C: the self-cleavage turned out to be 0.08.

In the case of A4C C42U G44U, the self-cleavage worked out at 0.2.

Turning to A4C C18G A25C A26U A41G, the self-cleavage is 0.01.

Turning to A4C G21A C37A G44A, the self-cleavage came to 0.11.

With A4C C13A G19U U28C A39G G44A, the self-cleavage was 0.01.

Take A4C G22U A41C: the self-cleavage was 0.02.

Turning to A4C A24G C46U, the self-cleavage came out at 0.14.

On to A4C A16C A26C, for which the self-cleavage turned out to be 0.47.

Turning to A4C G5U G7U A25G, the self-cleavage came out at 0.03.

As to A4C C31U A41C C42U, the self-cleavage worked out at 0.06.

Consider A4C G5U G7A C15A G22C, for which the self-cleavage came to 0.07.

In the case of A4C G7U C13U C15U C18G, the self-cleavage amounted to 0.12.

Regarding A4C A26G G30C C45U, the self-cleavage is 0.02.

As to A4C G17U C18A U20G, the self-cleavage is 0.01.

With A4C C10U G22C, the self-cleavage worked out at 0.03.

In the case of A4C U9A C23A, the self-cleavage is 0.08.

For A4C G17U C31U C42G, the self-cleavage was 0.05.

Consider A4C G19C C23U C42A, for which the self-cleavage came out at 0.02.

A4C C15G A41U: the self-cleavage is 0.02.

As for A4C A16G G30A U34A A39U G44C, the self-cleavage stood at 0.01.

On to A4C C10A C13A A26C U32C G44A, for which the self-cleavage turned out to be 0.01.

With A4C A16C G17A U38C, the self-cleavage is 0.04.

Turning to A4C G7C A16U A25C U28G, the self-cleavage is 0.05.

A4C C15A C46U: the self-cleavage came to 0.08.

For A4C G17C G36A G40U, the self-cleavage came to 0.08.

In the case of A4C G27U U43G, the self-cleavage worked out at 0.07.

A4C U9A A25U A39G: the self-cleavage turned out to be 0.08.

Consider A4C C18G C42A, for which the self-cleavage was determined as 0.98.
